Results taken from a collection of fitness landscapes (doi:10.1126/science.1257360).
Some of the results follow.

B1: PhoQ; a variant is named by its letters at X, in order, P23837 (parent)
chain: MKKLLRLFFPLSLRVRFLLATAAVVLVLSLAYGMVALIGYSVSFDKTTFRLLRGESNLFYTLAKWENNKLHVELPENIDKQSPTMTLIYDENGQLLWAQRDVPWLMKMIQPDWLKSNGFHEIEADVNDTSLLLSGDHSIQQQLQEVREDDDDAEMTHSVAVNVYPATSRMPKLTIVVVDTIPVELKSSYMVWSWFIYVLSANLLLVIPLLWVAAWWSLRPIEALAKEVRELEEHNRELLNPATTRELTSLVRNLNRLLKSERERYDKYRTTLTDLTHSLKTPLXXLQXXLRSLRSEKMSVSDAEPVMLEQISRISQQIGYYLHRASMRGGTLLSRELHPVAPLLDNLTSALNKVYQRKGVNISLDISPEISFVGEQNDFVEVMGNVLDNACKYCLEFVEISARQTDEHLYIVVEDDGPGIPLSKREVIFDRGQRVDTLRPGQGVGLAVAREITEQYEGKIVAGESMLGGARMEVIFGRQHSAPKDE

Variants of: B1
Test: enrichment ratio after two sorts for PhoP signalling (ratio (wild type AVST 3.29)); higher = more functional
Settings: with PhoP (E. coli)

| Variant | enrichment ratio |
| --- | --- |
| RPLY | ≤ 0.25 |
| SKTQ | ≤ 0.25 |
| FDPK | ≤ 0.25 |
| IDSH | ≤ 0.25 |
| TFHN | ≤ 0.25 |
| VMQC | ≤ 0.25 |
| YQRN | ≤ 0.25 |
| ECTY | ≤ 0.25 |
| HKYH | ≤ 0.25 |
| LSVK | ≤ 0.25 |
| NNRY | ≤ 0.25 |
| WFRR | ≤ 0.25 |
| ISQN | ≤ 0.25 |
| SNSK | ≤ 0.25 |
| FVCM | 2.91 |
| SFHM | ≤ 0.25 |
| MVFF | ≤ 0.25 |
| RSWK | ≤ 0.25 |
| NTWM | ≤ 0.25 |
| MQCE | ≤ 0.25 |
| GWFN | ≤ 0.25 |
| NCPI | ≤ 0.25 |
| RFLD | ≤ 0.25 |
| PICM | ≤ 0.25 |

| Variant | enrichment ratio |
| --- | --- |
| YETG | ≤ 0.25 |
| LMEY | ≤ 0.25 |
| HSRV | ≤ 0.25 |
| QMTP | ≤ 0.25 |
| SFDD | ≤ 0.25 |
| LIVK | ≤ 0.25 |
| DYTL | ≤ 0.25 |
| PEHA | ≤ 0.25 |
| QSAT | ≤ 0.25 |
| GNPG | ≤ 0.25 |
| NRCF | ≤ 0.25 |
| YRFP | ≤ 0.25 |
| MQHN | ≤ 0.25 |
| PDVR | ≤ 0.25 |
| FEQT | ≤ 0.25 |
| SGPR | ≤ 0.25 |
| FHKR | ≤ 0.25 |
| EVYN | ≤ 0.25 |
| HFTD | ≤ 0.25 |
| VRQN | ≤ 0.25 |
| FQRW | ≤ 0.25 |
| RARN | ≤ 0.25 |
| SCVH | 8.93 |
| AHQA | ≤ 0.25 |

| Variant | enrichment ratio |
| --- | --- |
| TPFV | ≤ 0.25 |
| LTIP | ≤ 0.25 |
| AVTC | 6.81 |
| VATC | ≤ 0.25 |
| MLLL | 6.44 |
| WQKA | ≤ 0.25 |
| SECD | 8.24 |
| KGPL | ≤ 0.25 |
| RPCQ | ≤ 0.25 |
| GQIC | ≤ 0.25 |
| ESWP | ≤ 0.25 |
| LTRG | ≤ 0.25 |
| EANN | ≤ 0.25 |
| NVQG | ≤ 0.25 |
| APLL | ≤ 0.25 |
| QSRT | ≤ 0.25 |
| LGTR | ≤ 0.25 |
| YTIR | ≤ 0.25 |
| KEDY | ≤ 0.25 |
| WKDR | ≤ 0.25 |
| PHIK | ≤ 0.25 |
| IPLG | ≤ 0.25 |
| GEGK | ≤ 0.25 |
| GSMP | ≤ 0.25 |

| Variant | enrichment ratio |
| --- | --- |
| TGMN | 34.8 |
| NVHS | ≤ 0.25 |
| MFFR | ≤ 0.25 |
| YSTR | ≤ 0.25 |
| FILI | 3.04 |
| KNLT | ≤ 0.25 |
| KSDY | ≤ 0.25 |
| WWRF | ≤ 0.25 |
| QVTQ | ≤ 0.25 |
| YQFF | ≤ 0.25 |
| SSDG | ≤ 0.25 |
| QAFC | ≤ 0.25 |
| YSYN | ≤ 0.25 |
| SFYL | ≤ 0.25 |
| VQHD | ≤ 0.25 |
| WSME | ≤ 0.25 |
| GAQW | ≤ 0.25 |
| MPHK | ≤ 0.25 |
| VIPI | ≤ 0.25 |
| DYGS | ≤ 0.25 |
| RWNI | ≤ 0.25 |
| IYAC | ≤ 0.25 |
| EQGW | ≤ 0.25 |
| ELSK | ≤ 0.25 |

| Variant | enrichment ratio |
| --- | --- |
| EMCR | ≤ 0.25 |
| VSIY | ≤ 0.25 |
| NTST | ≤ 0.25 |
| YILA | 0.425 |
| LLNE | ≤ 0.25 |
| RAAF | ≤ 0.25 |
| YEVF | ≤ 0.25 |
| FWHT | ≤ 0.25 |
| QKLE | ≤ 0.25 |
| RMET | ≤ 0.25 |
| LTMW | ≤ 0.25 |
| VQMD | ≤ 0.25 |
| LYYV | ≤ 0.25 |
| FENF | ≤ 0.25 |
| THCH | 5.09 |
| NSWA | ≤ 0.25 |
| TTYD | ≤ 0.25 |
| SQQP | ≤ 0.25 |
| IGMW | ≤ 0.25 |
| FAQV | ≤ 0.25 |
| AFDN | ≤ 0.25 |
| AMKE | ≤ 0.25 |
| RFRW | ≤ 0.25 |
| WTAI | ≤ 0.25 |

| Variant | enrichment ratio |
| --- | --- |
| KFIP | ≤ 0.25 |
| HLTK | ≤ 0.25 |
| YTCN | ≤ 0.25 |
| VWYY | ≤ 0.25 |
| TLTP | ≤ 0.25 |
| NSTN | ≤ 0.25 |
| WRAI | ≤ 0.25 |
| YCLK | 1.72 |
| LAKW | ≤ 0.25 |
| HQAF | ≤ 0.25 |
| PMDH | ≤ 0.25 |
| RIEM | ≤ 0.25 |
| TCQG | 3.14 |
| KREY | ≤ 0.25 |
| IKAF | ≤ 0.25 |
| PIRL | ≤ 0.25 |
| YVLA | 0.29 |
| ALSH | 2.51 |
| YRFL | ≤ 0.25 |
| GLTY | 0.468 |
| GSYI | ≤ 0.25 |
| GEFA | ≤ 0.25 |
| GWLW | ≤ 0.25 |
| IECV | ≤ 0.25 |

| Variant | enrichment ratio |
| --- | --- |
| EHFC | ≤ 0.25 |
| MCPT | ≤ 0.25 |
| HFGC | ≤ 0.25 |
| MDVC | ≤ 0.25 |
| INSW | ≤ 0.25 |
| RPCN | ≤ 0.25 |
| EMDI | ≤ 0.25 |
| EEFP | ≤ 0.25 |
| NLGM | ≤ 0.25 |
| NFIH | ≤ 0.25 |
| FDVI | ≤ 0.25 |
| TFPV | ≤ 0.25 |
| PIDF | ≤ 0.25 |
| VLFG | ≤ 0.25 |
| KNTK | ≤ 0.25 |
| NWVD | ≤ 0.25 |
| SCRC | ≤ 0.25 |
| TSWT | 13.4 |
| GSGE | ≤ 0.25 |
| TTKF | ≤ 0.25 |
| SGCF | 7.09 |
| FTDS | ≤ 0.25 |
| IGQN | ≤ 0.25 |
| DCDW | ≤ 0.25 |

| Variant | enrichment ratio |
| --- | --- |
| GSRT | ≤ 0.25 |
| VCRG | ≤ 0.25 |
| ALQK | ≤ 0.25 |
| ANKC | ≤ 0.25 |
| AMLL | 14.2 |
| TRNC | ≤ 0.25 |
| YQLN | ≤ 0.25 |
| NAGG | ≤ 0.25 |
| MNWK | ≤ 0.25 |
| GPAY | ≤ 0.25 |
| HWRD | ≤ 0.25 |
| RAHG | ≤ 0.25 |
| ECDQ | ≤ 0.25 |
| HWKA | ≤ 0.25 |
| HRPM | ≤ 0.25 |
| WREM | ≤ 0.25 |
| PCTH | ≤ 0.25 |
| HHCW | ≤ 0.25 |
| IMEV | ≤ 0.25 |
| VCWM | ≤ 0.25 |
| WYNA | ≤ 0.25 |
| INIH | ≤ 0.25 |
| HHFT | ≤ 0.25 |
| SRKH | ≤ 0.25 |

| Variant | enrichment ratio |
| --- | --- |
| HPSN | ≤ 0.25 |
| MEVD | ≤ 0.25 |
| DTTS | ≤ 0.25 |
| TDPR | ≤ 0.25 |
| SSNE | ≤ 0.25 |
| DLEY | ≤ 0.25 |
| SYKP | ≤ 0.25 |
| DHDC | ≤ 0.25 |
| SERL | ≤ 0.25 |
| EVRK | ≤ 0.25 |
| SHCT | ≤ 0.25 |
| FLAE | ≤ 0.25 |
| TMVY | ≤ 0.25 |
| YTSD | ≤ 0.25 |
| WYAI | ≤ 0.25 |
| CIIC | ≤ 0.25 |
| WAWY | ≤ 0.25 |
| GQRT | ≤ 0.25 |
| QLDR | ≤ 0.25 |
| FELA | 2.53 |
| IREE | ≤ 0.25 |
| YSYK | ≤ 0.25 |
| KEMR | ≤ 0.25 |
| PMYC | ≤ 0.25 |

| Variant | enrichment ratio |
| --- | --- |
| RVRK | ≤ 0.25 |
| SQWC | ≤ 0.25 |
| EAKF | ≤ 0.25 |
| FVKN | ≤ 0.25 |
| AEYT | 2.16 |
| SQSD | ≤ 0.25 |
| CSFL | ≤ 0.25 |
| TRNP | ≤ 0.25 |
| VTMK | ≤ 0.25 |
| PITV | ≤ 0.25 |
| KVMA | ≤ 0.25 |
| FHVQ | ≤ 0.25 |
| SKPV | ≤ 0.25 |
| LASY | ≤ 0.25 |
| VGFW | ≤ 0.25 |
| WIKA | ≤ 0.25 |
| DMQH | ≤ 0.25 |
| TGLQ | 9.97 |
| QGLI | 13.3 |
| SMQR | ≤ 0.25 |
| GECS | 7.23 |
| AIPD | ≤ 0.25 |
| VYKS | ≤ 0.25 |
| RQSS | ≤ 0.25 |

| Variant | enrichment ratio |
| --- | --- |
| FVGK | ≤ 0.25 |
| GYTV | ≤ 0.25 |
| QYFG | ≤ 0.25 |
| VSVW | ≤ 0.25 |
| HMCM | ≤ 0.25 |
| LSSG | ≤ 0.25 |
| HQVF | ≤ 0.25 |
| FMTQ | ≤ 0.25 |
| DQDL | ≤ 0.25 |
| DFEQ | ≤ 0.25 |
| SAPT | ≤ 0.25 |
| IMAV | ≤ 0.25 |
| ACLH | 5.86 |
| NNCD | ≤ 0.25 |
| HTDY | ≤ 0.25 |
| GSMR | ≤ 0.25 |
| SKII | 7.85 |
| QHQR | ≤ 0.25 |
| NYDH | ≤ 0.25 |
| LEMH | ≤ 0.25 |
| AIGR | 0.485 |
| PYHF | ≤ 0.25 |
| NPNT | ≤ 0.25 |
| SCSQ | 7.71 |

| Variant | enrichment ratio |
| --- | --- |
| YHWF | ≤ 0.25 |
| NDFS | ≤ 0.25 |
| WPFI | ≤ 0.25 |
| EPFF | ≤ 0.25 |
| CSFY | ≤ 0.25 |
| GRNY | ≤ 0.25 |
| TKRP | ≤ 0.25 |
| DTNF | ≤ 0.25 |
| NQFT | ≤ 0.25 |
| PPQT | ≤ 0.25 |
| LIIH | ≤ 0.25 |
| DCPR | ≤ 0.25 |
| AAQP | ≤ 0.25 |
| ETFD | ≤ 0.25 |
| RAPP | ≤ 0.25 |
| GLYA | ≤ 0.25 |
| MMLW | ≤ 0.25 |
| HPKA | ≤ 0.25 |
| DQMF | ≤ 0.25 |
| SSHP | ≤ 0.25 |
| INLL | 3.45 |
| IFHA | ≤ 0.25 |
| QFGY | ≤ 0.25 |
| MPNP | ≤ 0.25 |

| Variant | enrichment ratio |
| --- | --- |
| RRMA | ≤ 0.25 |
| WCRE | ≤ 0.25 |
| IKEM | ≤ 0.25 |
| KTEN | ≤ 0.25 |
| YRCN | ≤ 0.25 |
| FWAR | ≤ 0.25 |
| LTDD | ≤ 0.25 |
| KHGK | ≤ 0.25 |
| YLVY | ≤ 0.25 |
| IIVE | ≤ 0.25 |
| VSPR | ≤ 0.25 |
| GMMH | ≤ 0.25 |
| SLVM | 2.29 |
| NKGW | ≤ 0.25 |
| GFTD | ≤ 0.25 |
| VQQK | ≤ 0.25 |
| FYNE | ≤ 0.25 |
| RGGT | ≤ 0.25 |
